PubChem BioAssay AID1508624 (National Center for Advancing Translational Sciences (NCATS), 2021)
Hit rate of the full screen: of about 48,000 compounds, about 120 (0.25%) were called active. About 4% were inconclusive and are not listed. Calls follow the shape of the dose curve; as a rule, active = well fitted activation curve with a large enough effect; inconclusive = small, poorly fitted or top-dose-only effect, or another doubt; inactive = no such curve, though single readings can be large or run the other way. The list shows a part of the results.

Test: Primary qHTS for Identification of Small Molecule Activators of Huntingtin-Antisense Promoter Activity; also: nearly all actives have a fitted effect of over 55% in size
Details: HEK293 HTT-AS promoter firefly luciferase reporter, 24 h; series mostly up to 57.5 µM; activity change, positive = activation: at the top concentration
Outline: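 Firefly luciferase readout (Dual-Glo, 10 min RT) after 24 h, 37 °C compound exposure (final up to 57.5 uM) of HEK293 reporter cells cultured 24 h beforehand; PTC124 at 50 uM final as control inhibitor; activity scaled vehicle 0%, zero RLU -100%.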

Activity change, positive = activation, inactive:
O=C(c1ccc(F)c(F)c1Nc1ccc(I)cc1F)N1CC(O)([C@H]2CCCCN2)C1 -34.7%
O=C(CN1C(=O)C(c2ccc(F)cc2)=NC12CCCCCC2)Nc1ccc(F)c(Cl)c1 -47.4%
Cc1ccc2c(=O)cc(C(=O)Nc3c(C)n(C)n(-c4ccccc4)c3=O)oc2c1C 6.51% [at 11.5 µM, percent change from vehicle, -100% = no light]
CCC(=O)NC1CC(=O)N(c2ccc3c(c2)OCCO3)C1 (stereo not given) -0.457%
COc1ccccc1NC(=O)Cn1c(=O)n(Cc2ccco2)c(=O)c2oc3ccccc3c21 -14.9%
COC(=O)C(C)Sc1nnc2cc(C)c3cc(C)cc(C)c3n12 (stereo not given) -15.1%
COc1cc(-c2cc(OC)c3c(C)oc(C)c3c(=O)c2)ccc1OC(=O)c1ccccc1C -32.3%
Cc1cc(C)c2c(-n3cccc3)c(C(=O)NCCc3ccc(Cl)cc3)sc2n1 -16.5%
CN(C(=O)c1nc(-c2cccc(F)c2)n2c1CCCCC2)c1ccccc1F -7.54%
Cc1ccc(-n2c3c(c(=O)[nH]c2=O)C(NC(=O)c2ccccc2F)(C(F)(F)F)C(=O)N3)cc1C (stereo not given) -11.3%
CCN(CCCNC(=O)c1cc2c(=O)n(CC)c3ccccc3c2s1)c1cccc(C)c1 -9.35%
Cc1ccccc1-c1nc(CS(=O)(=O)CC(=O)NC(C)c2ccccc2)c(C)o1 (stereo not given) -25.7%
CCc1ccc(N2CCn3c2nc2c3c(=O)n(Cc3ccc(F)cc3)c(=O)n2C)cc1 -6.17%
COc1ccc2c(c1)c(=O)c(S(=O)(=O)c1ccc(C)c(C)c1)cn2CC(=O)Nc1ccccc1 -17.2%
CCc1ccc(NC(=O)c2cc3c(=O)n(Cc4cccs4)ccc3nc2C)cc1 -13.3%
COc1ccc(Cl)cc1NC(=O)CN(c1cc(C)cc(C)c1)S(=O)(=O)c1c(C)n[nH]c1C -37.9%
COc1cc(-c2noc(C3CC(=O)N(c4ccc5c(c4)OCCO5)C3)n2)cc(OC)c1OC (stereo not given) -7.33%
O=C(Nc1cc(F)ccc1F)C1COc2ccccc2C1 (stereo not given) 18.6%
CCN(CC)CC(=O)Nc1c(C)cccc1C -9.78%
Cc1ccc(CNc2ccc(-c3nc(-c4ccco4)no3)cc2[N+](=O)[O-])cc1 -8.73%
Cc1ccc(-c2cc(C(=O)O)n(Cc3ccccc3)n2)cc1 25.2%
Cc1ccc(S(=O)(=O)c2nc(-c3ccccc3)oc2N2CCN(c3ccccc3)CC2)cc1 -12.9%
COc1ccc(C(=O)Nc2ccc(-n3nncc3-c3ccc(OC)c(OC)c3)cc2)cc1 -15.3%
CCOc1ccc(-c2nc3c(C#N)c[nH]n3c2NC2CCCC2)cc1 32.8%
Cc1ccc(C2=Nc3ccccc3NC(c3ccncc3)=N2)cc1 -20.5%
CNS(=O)(=O)c1cn(CC(=O)Nc2ccc(C)cc2C)cc1S(=O)(=O)NC -8.51%
COc1ccc(NS(=O)(=O)c2ccc(NC(=O)N3CCCC3)cc2)cc1 -22.1%
Cc1ccc(-c2cn3c(n2)sc2cc(C(=O)NCCCc4ccccc4)ccc23)cc1 29.1%
COc1ccc(CCNC(=O)CCc2c(C)nc3c(c(C)nn3-c3ccc(C)cc3)c2C)c(OC)c1 -15.8%
CCc1ccccc1NC(=O)C1CCCN(S(=O)(=O)c2cccc3nsnc23)C1 (stereo not given) -7.41%
COc1ccc(Nc2cc(C)nc(-n3nc(C)cc3C)n2)cc1Cl -74.7%
Cc1ccc(Cc2nc3ccccc3nc2SCC(=O)Nc2cccc(C(F)(F)F)c2)cc1 -28.3%
COC(=O)c1cnn(-c2ccc(C(=O)Nc3ccc(C(C)=O)cc3)cc2)c1N -7.37%
O=C(CN1CCSc2ccccc21)N1CCN(c2cccc(Cl)c2)CC1 -23.5%
Cc1ccc(-n2ncc3c(NC4CCCCC4)ncnc32)cc1 -56.6%
CC(C)(C)c1ccc(S(=O)(=O)NCc2nc3cccnc3n2Cc2ccccc2Cl)cc1 -32.5%
Cc1nn(CC(=O)NCCc2ccccc2Cl)c(=O)c2nn(-c3ccccc3)c(C)c12 -15.4%
O=S(=O)(c1ccccc1)N1CCC(c2ccncc2)CC1 -42.7%
CCOc1ccc(CNC(=O)Cn2nc(C)c3nn(-c4ccc(Cl)cc4)c(C)c3c2=O)cc1OC -18.3%
O=C1COc2cc(S(=O)(=O)CCC(=O)N3CCN(c4cccc(Cl)c4)CC3)c(Cl)cc2N1 -41.8%
CCC(C)NC(=O)c1sc2nc(C)c(C(=O)Nc3ccc(C)cc3C)c(-c3ccc(Cl)cc3)c2c1N (stereo not given) -11.3%
CC(=O)OCC(=O)[C@@]12OC(C)(C)O[C@@H]1C[C@H]1[C@@H]3C[C@H](F)C4=CC(=O)C=C[C@]4(C)[C@@]3(F)[C@@H](O)C[C@@]12C -4.21%
COc1ccc(CNCc2c(C(=O)O)c(C)n(Cc3ccc(Cl)cc3)c2C)c(OC)c1 -14.6%
c1ccc2c(CC3=NCCN3)cccc2c1 0.373%
CC(=O)c1cc(-c2ccc(F)cc2)n(CCC(=O)Nc2nc3c(C)cccc3s2)c1C -15.2%
Cc1ccc2c(c1)c1c(c(=O)n(-c3ccccc3C)c(=O)n1CC(=O)NCCC1=CCCCC1)n2C -15.2%
Cn1cnc(S(=O)(=O)N2CCC(C(=O)NCc3ccc(Cl)cc3)CC2)c1 -6.59%
COc1ccc(CNC(=O)c2cc3c(=O)n(C)c4ccccc4c3n2C)cc1 -5.35%
COCCNC(=O)c1nn(-c2ccc(Cl)cc2)nc1CO 7.96%
O=C(CSc1ccccc1)NCc1ccc2c(c1)CCN2C(=O)c1ccc(F)cc1 6.15%
O=C(Cc1ccccc1)N(Cc1cccnc1)c1nc2ccc(F)cc2s1 -15.6%
CCOc1cc(C2CC(=O)Nc3nc(SCc4ccccc4)[nH]c(=O)c32)ccc1O (stereo not given) -16.6%
CCc1ccc2oc(-c3ccc(NC(=O)c4cc(OC)c(OC)c(OC)c4)cc3)nc2c1 2.06%
CCOC(=O)c1ccc(N2C(=O)c3[nH]nc(-c4ccc(OCC)cc4)c3C2c2ccc(OC)cc2OC)cc1 (stereo not given) -22.4%
Cc1ccccc1-c1nnc(C2CCN(S(=O)(=O)c3ccc(Cl)cc3)CC2)o1 -53.8%
CCc1ccc(CNC(=O)CCCN2C(=O)c3cccnc3Oc3ccc(Cl)cc32)cc1 -23.3%
O=C(COc1ccccc1)Nc1nnc(S(=O)(=O)N2CCCCCC2)s1 -20.5%
CC(C)c1ccccc1NC(=O)CN1C(=O)c2cccc3cccc1c23 -21.7%
CCC(=O)Nc1ccc2nc(SCc3ccc(C)cc3)sc2c1 2.56%
Cc1nc(N2CCCC2)c2c(C(=O)N3CCN(c4cccc(C)c4C)CC3)c(C)oc2n1 -37.1%
